# Measured values published in the supplement of paper PMC8728848.
# The other results are listed elsewhere or left out.
# Key:
# Experiment in all cases: glycan array binding signal (z-score within array); higher = stronger binding
# Settings in all cases: glycan notation: IUPAC condensed, linker removed
# [1] = molecular target: Gal(b1-3)GlcNAc(a1-6)Gal(b1-4)GlcNAc
# Summary of the method: (§1)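 Glycan array data were curated from 3228 arrays in the Consortium for Functional Glycomics database and kept only where the protein sequence was available. Glycan names were converted to IUPAC-condensed notation, and columns mapping to the same glycan were averaged. The binding signal is a within-array Z-score, averaged across arrays of the same protein sequence at different concentrations or buffers and across linkers. Negative Z-scores can be read as non-binding.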
# [2] = molecular target: Gal(b1-3)GlcNAc(b1-2)Man(a1-3)[Gal(b1-3)GlcNAc(b1-2)Man(a1-6)]Man(b1-4)GlcNAc(b1-4)GlcNAc
# Summary of the method: as §1
# [3] = molecular target: Gal(b1-3)GlcNAc(b1-2)Man(a1-3)[Gal(b1-3)GlcNAc(b1-2)Man(a1-6)]Man(b1-4)GlcNAc(b1-4)[Fuc(a1-6)]GlcNAc
# Summary of the method: as §1
# [4] = molecular target: Gal(b1-3)GlcNAc(b1-2)[Gal(b1-3)GlcNAc(b1-6)]Man(a1-6)[Gal(b1-3)GlcNAc(b1-2)Man(a1-3)]Man(b1-4)GlcNAc(b1-4)GlcNAc
# Summary of the method: as §1
# [5] = molecular target: Gal(b1-3)GlcNAc(b1-3)Gal(b1-3)GlcNAc
# Summary of the method: as §1
# [6] = molecular target: Gal(b1-3)GlcNAc(b1-3)Gal(b1-4)Glc
# Summary of the method: as §1
# [7] = molecular target: Gal(b1-3)GlcNAc(b1-3)Gal(b1-4)GlcNAc
# Summary of the method: as §1
# [8] = molecular target: Gal(b1-3)GlcNAc(b1-3)Gal(b1-4)GlcNAc(b1-6)[Gal(b1-3)GlcNAc(b1-3)]Gal(b1-4)Glc
# Summary of the method: as §1
# [9] = molecular target: Gal(b1-3)GlcNAc(b1-3)Gal(b1-4)[Fuc(a1-3)]GlcNAc(b1-6)[Gal(b1-3)GlcNAc(b1-3)]Gal(b1-4)Glc
# Summary of the method: as §1
# [10] = molecular target: Gal(b1-3)GlcNAc(b1-3)GalNAc
# Summary of the method: as §1
# [11] = molecular target: Gal(b1-3)GlcNAc(b1-6)Gal(b1-4)GlcNAc
# Summary of the method: as §1
# [12] = molecular target: Gal(b1-3)[Fuc(a1-4)]GlcNAc
# Summary of the method: as §1
# [13] = molecular target: Gal(b1-3)[Fuc(a1-4)]GlcNAc(b1-2)Man(a1-3)[Gal(b1-3)[Fuc(a1-4)]GlcNAc(b1-2)Man(a1-6)]Man(b1-4)GlcNAc(b1-4)GlcNAc
# Summary of the method: as §1
# [14] = molecular target: Gal(b1-3)[Fuc(a1-4)]GlcNAc(b1-2)Man(a1-3)[Gal(b1-3)[Fuc(a1-4)]GlcNAc(b1-2)Man(a1-6)]Man(b1-4)GlcNAc(b1-4)[Fuc(a1-6)]GlcNAc
# Summary of the method: as §1
# [15] = molecular target: Gal(b1-3)[Fuc(a1-4)]GlcNAc(b1-3)Gal(b1-3)[Fuc(a1-4)]GlcNAc
# Summary of the method: as §1
# [16] = molecular target: Gal(b1-3)[Fuc(a1-4)]GlcNAc(b1-3)Gal(b1-4)GlcNAc
# Summary of the method: as §1
# [17] = molecular target: Gal(b1-3)[Fuc(a1-4)]GlcNAc(b1-3)Gal(b1-4)[Fuc(a1-3)]GlcNAc
# Summary of the method: as §1
# [18] = molecular target: Gal(b1-3)[GlcNAc(b1-6)]GalNAc
# Summary of the method: as §1
# [19] = molecular target: Gal(b1-3)[GlcNAc(b1-6)]GlcNAc
# Summary of the method: as §1
# [20] = molecular target: Gal(b1-3)[Neu5Ac(a2-6)]GalNAc
# Summary of the method: as §1
# [21] = molecular target: Gal(b1-3)[Neu5Ac(a2-6)]GlcNAc
# Summary of the method: as §1
# [22] = molecular target: Gal(b1-3)[Neu5Ac(a2-6)]GlcNAc(a1-4)Gal(b1-4)Glc
# Summary of the method: as §1
# [23] = molecular target: Gal(b1-3)[Neu5Ac(a2-6)]GlcNAc(b1-6)Gal(b1-4)Glc
# Summary of the method: as §1
# [24] = molecular target: Gal(b1-3)[Neu5Ac(b2-6)]GalNAc
# Summary of the method: as §1
# [25] = molecular target: Gal(b1-3)[Neu5Ac(b2-6)]GlcNAc
# Summary of the method: as §1
# Gal(b1-4)Gal = molecular target: Gal(b1-4)Gal
# Summary of the method: as §1
# [26] = molecular target: Gal(b1-4)GalNAc(a1-3)[Fuc(a1-2)]Gal(b1-4)GlcNAc
# Summary of the method: as §1
# [27] = molecular target: Gal(b1-4)GalNAc(b1-3)[Fuc(a1-2)]Gal(b1-4)GlcNAc
# Summary of the method: as §1
# Gal(b1-4)Glc = molecular target: Gal(b1-4)Glc
# Summary of the method: as §1
# Gal(b1-4)Glc6S = molecular target: Gal(b1-4)Glc6S
# Summary of the method: as §1
# Gal(b1-4)GlcNAc = molecular target: Gal(b1-4)GlcNAc
# Summary of the method: as §1
# [28] = molecular target: Gal(b1-4)GlcNAc(a1-6)Gal(b1-4)GlcNAc
# Summary of the method: as §1
# [29] = molecular target: Gal(b1-4)GlcNAc(b1-2)Man(a1-3)Man(b1-4)GlcNAc(b1-4)GlcNAc
# Summary of the method: as §1
# [30] = molecular target: Gal(b1-4)GlcNAc(b1-2)Man(a1-3)[Gal(b1-4)GlcNAc(b1-2)Man(a1-6)]Man(b1-4)GlcNAc(b1-4)GlcNAc
# Summary of the method: as §1
# [31] = molecular target: Gal(b1-4)GlcNAc(b1-2)Man(a1-3)[Gal(b1-4)GlcNAc(b1-2)Man(a1-6)]Man(b1-4)GlcNAc(b1-4)[Fuc(a1-6)]GlcNAc
# Summary of the method: as §1
# [32] = molecular target: Gal(b1-4)GlcNAc(b1-2)Man(a1-3)[Gal(b1-4)GlcNAc(b1-2)][GlcNAc(b1-4)]Man(b1-4)GlcNAc(b1-4)GlcNAc
# Summary of the method: as §1
# [33] = molecular target: Gal(b1-4)GlcNAc(b1-2)Man(a1-3)[GlcNAc(b1-2)Man(a1-6)]Man(b1-4)GlcNAc(b1-4)GlcNAc
# Summary of the method: as §1
# [34] = molecular target: Gal(b1-4)GlcNAc(b1-2)Man(a1-3)[Man(a1-6)]Man(b1-4)GlcNAc(b1-4)GlcNAc
# Summary of the method: as §1
binder,measurement,setting,value
"AAL (Aleuria aurantia), P18891 (protein) PTEFLYTSKIAAISWAATGGRQQRVYFQDLNGKIREAQRGGDNPWTGGSSQNVIGEAKLFSPLAAVTWKSAQGIQIRVYCVNKDNILSEFVYDGSKWITGQLGSVGVKVGSNSKLAALQWGGSESAPPNIRVYYQKSNGSGSSIHEYVWSGKWTAGASFGSTVPGTGIGATAIGPGRLRIYYQATDNKIREHCWDSNSWYVGGFSASASAGVSIAAISWGSTPNIRVYWQKGREELYEAAYGGSWNTPGQIKDASRPTPSLPDTFIAANSSGNIDISVFFQASGVSLQQWQWISGKGWSIGAVVPTGTPAGW",glycan array binding signal (z-score),[1],-0.421
same,glycan array binding signal (z-score),[2],-0.414
same,glycan array binding signal (z-score),[3],1.15
same,glycan array binding signal (z-score),[4],-0.419
same,glycan array binding signal (z-score),[5],-0.365
same,glycan array binding signal (z-score),[6],-0.397
same,glycan array binding signal (z-score),[7],-0.482
same,glycan array binding signal (z-score),[8],-0.431
same,glycan array binding signal (z-score),[9],0.584
same,glycan array binding signal (z-score),[10],-0.414
same,glycan array binding signal (z-score),[11],-0.434
same,glycan array binding signal (z-score),[12],1.66
same,glycan array binding signal (z-score),[13],-0.355
same,glycan array binding signal (z-score),[14],-0.039
same,glycan array binding signal (z-score),[15],1.51
same,glycan array binding signal (z-score),[16],1.54
same,glycan array binding signal (z-score),[17],1.45
same,glycan array binding signal (z-score),[18],-0.48
same,glycan array binding signal (z-score),[19],-0.62
same,glycan array binding signal (z-score),[20],-0.46
same,glycan array binding signal (z-score),[21],-0.651
same,glycan array binding signal (z-score),[22],-0.625
same,glycan array binding signal (z-score),[23],-0.487
same,glycan array binding signal (z-score),[24],-0.487
same,glycan array binding signal (z-score),[25],-0.627
same,glycan array binding signal (z-score),Gal(b1-4)Gal,-0.447
same,glycan array binding signal (z-score),[26],-0.081
same,glycan array binding signal (z-score),[27],-0.399
same,glycan array binding signal (z-score),Gal(b1-4)Glc,-0.503
same,glycan array binding signal (z-score),Gal(b1-4)Glc6S,-0.491
same,glycan array binding signal (z-score),Gal(b1-4)GlcNAc,-0.488
same,glycan array binding signal (z-score),[28],-0.433
same,glycan array binding signal (z-score),[29],-0.404
same,glycan array binding signal (z-score),[30],-0.521
same,glycan array binding signal (z-score),[31],0.792
same,glycan array binding signal (z-score),[32],-0.438
same,glycan array binding signal (z-score),[33],-0.439
same,glycan array binding signal (z-score),[34],-0.406
